Source: PubChem BioAssay AID686971 (National Center for Advancing Translational Sciences (NCATS), 2013)
Hit rate of the full screen: of about 360,000 compounds, about 7,500 (2.1%) were called active. Inconclusive results, whose numbers are uncertain, are shown with a selection of clear calls. Calls come from the whole dose curve; as a rule, active = well fitted cell-killing curve with a large enough effect; inconclusive = small, poorly fitted or top-dose-only effect, or effect the other way, or another doubt; inactive = no such curve, though single readings can be large or run the other way. No potency is given beside an inconclusive call; the fits are too rough.

Test: qHTS for induction of synthetic lethality in tumor cells producing 2HG: qHTS for the HT-1080-IDH1KD cell line;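 for activity, negative = toxicity: 0% = DMSO wells and -100% = cell-free medium wells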
Conditions: HT-1080 IDH1 knockdown viability, ATP luminescence, 48 h; activity, negative = toxicity: at 46.1 µM (top of the series) unless noted
In short: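 CellTiter-Glo luminescence after 48 h compound exposure at 37 degrees C of IDH1-knockdown HT-1080 cells in 5% FBS RPMI. %Activity scaled between DMSO wells and cell-free media wells, with curves fitted and assigned curve classes.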
Potency is the fitted concentration of half-maximal effect; tags give direction and shape of the fitted curve.

Row | Structure (SMILES) | Potency | activity, negative = toxicity
1 | Cc1cccc(-c2cc3nc(C)cc(NCCCn4ccnc4)n3n2)c1 | inconclusive [cytotoxic, single point] | 
2 | COC(=O)c1cn(C(=O)c2cccc(Br)c2)c2ccccc12 |  | inactive: 24.4%
3 | O=C(C1CCC(CNc2c(N3CCCCC3)c(=O)c2=O)CC1)N1CCN(C2CCCCC2)CC1 (stereo unspecified) |  | inconclusive: 30.4%
4 | Cc1cccc(CN2CCN(C(=O)CCl)CC2)c1 | inconclusive [cytotoxic, single point] | 
5 | O=C(Cc1ccc(Br)cc1)NCc1ccccc1 | active: 2.91 µM | 
6 | COc1ccc(S(=O)(=O)Nc2cc3c(C(C)=O)c(C)oc3c3ccccc23)cc1 | active: 0.517 µM | 
7 | CC(C)=CCc1c(O)c(CC=C(C)C)c2occ(-c3ccc(O)cc3)c(=O)c2c1O | inconclusive [cytotoxic, single point] | 
8 | CCn1c(C)c(CS(=O)(=O)c2ccccc2)[nH]c1=O | inconclusive [cytotoxic, single point] | 
9 | COc1ccc(-c2cc(-c3c(O)c(OC)c4occc4c3OC)[nH]n2)cc1OC | inconclusive [cytotoxic, single point] | 
10 | CCOC(=O)c1c(C)c(C(=O)NCc2ccco2)c(C)n1Cc1ccccc1 | inconclusive [cytotoxic, single point] | 
11 | Cn1nc(C(=O)NNC(=O)c2cccc(Cl)c2)ccc1=O |  | inactive: 2.04%
12 | C/C(=N\Nc1nc(C)cc(-c2ccccc2)n1)c1ccccc1 | inconclusive [cytotoxic, partial curve, poor fit] | 
13 | COc1ccc(-c2nc3ccccc3n2Cc2ccc(C)cc2)cc1 | inconclusive [cytotoxic, single point] | 
14 | CCOc1cc(C2c3c(oc4cc(C)c(Cl)cc4c3=O)C(=O)N2Cc2ccco2)ccc1O (stereo unspecified) |  | inactive: 14.3%
15 | Cc1ccc(N=Cc2cc(C)n(C3CCCC3)c2C)cc1 | inconclusive [cytotoxic, single point] | 
16 | CCn1c2ccccc2c2cc(NC(=O)c3cc(C)on3)ccc21 | active: 23.1 µM | 
17 | CCOc1cc(/C=N/NC(=O)CSc2nncn2C)ccc1OCc1cccc(C)c1 |  | inactive: -11.6%
18 | O=C(Nc1ccc(Cl)c(Cl)c1)c1ccc(Cn2cc(Cl)cn2)cc1 | inconclusive [cytotoxic, single point] | 
19 | CCCCCCCCC(=O)NNC(=O)c1c(O)c2ccccc2n(CCC)c1=O |  | inactive: 11.9%
20 | CCOC(=O)c1ccc(NC(=O)CN(c2ccc(C)cc2)S(=O)(=O)c2c(C)n[nH]c2C)cc1 | inconclusive [cytotoxic, single point] | 
21 | O=C(N/N=C/c1ccc2c(c1)OCO2)c1cccc2ccccc12 | inconclusive [cytotoxic, partial curve] | 
22 | Cc1ccccc1N=C(c1ccccc1)C1C(=O)c2ccccc2C1=O | inconclusive [cytotoxic, single point] | 
23 | C=CCn1c(SCC(=O)NC2CCCC2)nc2scc(-c3ccco3)c2c1=O | inconclusive [cytotoxic, single point] | 

Row | Structure (SMILES) | Potency | activity, negative = toxicity
24 | Cc1onc(-c2ccccc2)c1C(=O)NC(=S)NNC(=O)c1cc(-c2ccc(F)cc2)n[nH]1 | inconclusive [cytotoxic, full curve, poor fit] | 
25 | CC[C@H](C)[C@@H]1NC(=O)c2cc([N+](=O)[O-])cc(I)c2NCC[C@@H](C(N)=O)NC(=O)[C@H](CCCN=C(N)N)NC1=O |  | inconclusive: 12.2%
26 | COc1ccc(S(=O)(=O)NCCSCc2cccs2)cc1 |  | inactive: -11.8%
27 | CC(C)CC1(C2CCCC2)NC(=O)NC1=O (stereo unspecified) | inconclusive [cytotoxic, single point] | 
28 | COc1ccc2c(c1)CC=C1C2CCC2(C)C(=O)C(=NO)CC12 (stereo unspecified) |  | inactive: -1.07%
29 | COc1ccc(-c2c/c(=N\c3nc(-c4ccccc4)c(C)s3)c3ccccc3o2)cc1O | active: 5.8 µM | 
30 | CCN(CC1CCCN(CCc2cccc(OC)c2)C1)C(=O)C=C(C)C (stereo unspecified) |  | inactive: -0.901%
31 | COc1ccc(-c2cc(C3CCN(c4ncccc4[N+](=O)[O-])CC3)[nH]n2)cc1 | inconclusive [cytotoxic, single point] | 
32 | CN(C)CCCN(C(=O)c1ccc(C(=O)c2ccccc2)cc1)c1nc2ccc(F)cc2s1 |  | inactive: -11%
33 | Cc1cc(NC(=O)/C(C#N)=C\c2ccc(-c3ccc(SC(F)F)cc3)o2)n(-c2ccccc2)n1 |  | inconclusive: -0.14% [cytotoxic]
34 | COc1ccc(CCNC(=O)C2CCN(Cc3nc(-c4ccccc4C)oc3C)CC2)cc1OC | inconclusive [cytotoxic, single point] | 
35 | CN(C)C(=O)CSc1nc(-c2ccccc2)nc2c1CCCC2 | inconclusive [cytotoxic, single point] | 
36 | COc1ccc(-n2c(SCC(=O)NCC3CCCO3)nc3c(c2=O)SCC3)cc1OC (stereo unspecified) |  | inactive: 8.6%
37 | Cc1ccc(-c2[nH]nc(N)c2N=Nc2cccc(Cl)c2C)cc1 | inconclusive [cytotoxic, single point] | 
38 | Cc1cc(C)cc(-n2ncc3c2CCCC3NC(=O)CN2CCCC2=O)c1 (stereo unspecified) |  | inactive: -2.02%
39 | CC(=N\NC(=O)c1cc(Br)ccc1O)/C(=N/O)C(=O)Nc1ccccc1 | active: 16.4 µM | 
40 | CC(C)(C)C1CCc2c(sc(NC(=O)CSc3ncn[nH]3)c2C#N)C1 (stereo unspecified) | active: 11.2 µM | 
41 | CC(Sc1nc2ccccc2c(=O)n1C)C(=O)N(C)C1CCCCC1 (stereo unspecified) | inconclusive [cytotoxic, single point] | 
42 | Cc1cccc(NC(=O)CSCC(=O)Nc2ccccc2N2CCCCC2)c1 |  | inactive: -12.9%
43 | CCOc1ccc(N=C2NC(=O)S/C2=C\c2ccc(Cl)cc2)cc1 | inconclusive [cytotoxic, single point] | 
44 | CCOC(=O)C1CCCN(C(=O)COC(=O)c2cc(=O)c3ccccc3o2)C1 (stereo unspecified) | inconclusive [rising, partial curve] | 
45 | CCCC(=O)N(CCN1CCOCC1)c1nc2c(F)cc(F)cc2s1 |  | inactive: -2.89%
46 | Cc1ccc2cc(/C=N/Nc3ccc(C(=O)O)cc3)c(Cl)nc2c1 | inconclusive [cytotoxic, partial curve] | 
